In all, about 420,000 compounds went through this assay and about 50,000 (12%) were called active. The inconclusive results got no clear call from the source; some entries with a clear call stand among them for comparison. The call rests on the fitted dose curve; in most records, active means well fitted inhibition curve with a large enough effect; inconclusive means small, poorly fitted or top-dose-only effect; inactive means flat fitted curve, though single readings scatter. Potencies of inconclusive entries are left out as doubtful fits.
Assay: qHTS for Inhibitors of human tyrosyl-DNA phosphodiesterase 1 (TDP1): qHTS in cells in presence of CPT; further: nearly all actives have a fitted effect of over 55% in size
Details: chicken DT40 Tdp1-/-;hTDP1 cells + 20 nM CPT, ATP luminescence, 48 h; activity change, negative = growth inhibition: at 46.2 µM (top of the series) unless noted
Summary of the method: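 Chicken DT40 Tdp1-/- cells stably complemented with human TDP1 were seeded at 400 cells/well in medium containing 20 nM camptothecin, exposed to pin-transferred compounds, and grown at 37 °C for at least 48 hr. Viability was read as ATP luminescence.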
With `Cc1oc2ncnc(N3CCOCC3)c2c1C(=O)NCc1ccccc1` the “activity change, negative = growth inhibition” value was inactive: -7.18%.
For `CCCOc1ccc(C2NC(=O)NC(c3ccccc3)=C2C(C)=O)cc1OCC` (stereo not drawn), the Potency was active: 23.1 µM.
For `O=C(CCn1cccn1)Nc1cccc(C(F)(F)F)c1`, the “activity change, negative = growth inhibition” value was inactive: -1.26%.
With `C[C@@H]1CN([C@@H](C)CO)C(=O)CCCn2nncc2CO[C@H]1CN(C)C(=O)Nc1cccc(Oc2ccccn2)c1` the “activity change, negative = growth inhibition” value was inactive: -0.833%.
In the case of `CCn1c(SCC(=O)N2CCC(C)CC2)nc2c1c(=O)n(C)c(=O)n2C`, the “activity change, negative = growth inhibition” value is reported as inactive: 3.43%.
With `O=C(NC(=S)Nc1ccc(N2CCN(C(=O)c3ccccc3)CC2)cc1)c1cccs1` the Potency was inconclusive [inhibitor, single point].
In the case of `CC(C)(C)c1ccc(C(=O)Cn2nc(C(=O)O)c3ccccc3c2=O)cc1`, the Potency is reported as inconclusive [inhibitor, single point].
For `O=C(CC(=O)Nc1ccc(Cl)c(Cl)c1)N/N=C/c1ccc(O)cc1`, the Potency was inconclusive [inhibitor, single point].
For `COc1ccc(-c2ccc(SCC(=O)NCc3ccc4c(c3)OCO4)nn2)cc1OC`, the Potency was inconclusive [inhibitor, single point].
With `CN(C)c1ccc(C(CN)c2c[nH]c3ccccc23)cc1` (stereo not drawn) the Potency was active: 18.4 µM.
In the case of `Cc1nc2sccn2c(=O)c1S(=O)(=O)N1CCN(c2ccc(F)cc2)CC1`, the Potency is reported as “inactive”.
With `COc1ccc(CCNC(=O)CSc2nc3ccccc3nc2Cc2ccc(Cl)cc2)cc1OC` the “activity change, negative = growth inhibition” value was inactive: -24.5%.
For `Cn1c(=O)c(-c2ccc(Cl)cc2)nc2cnc(Oc3ccccc3)nc21`, the “activity change, negative = growth inhibition” value was inactive: 3.49%.
For `CC(C)(C)c1ccc2c(c1)C(=O)c1ccccc1C2=O`, the Potency was inconclusive [inhibitor, single point].
With `CC(=O)Nc1n[nH]c(=S)s1` the Potency was inconclusive [inhibitor, full curve, poor fit].
With `Cc1csc(NC(=O)Nc2cccc(Cl)c2)n1` the Potency was inconclusive [inhibitor, single point].
For `COc1cccc(NC(=O)CN(C)C(=O)c2cn(-c3ccccc3)nc2-c2cccs2)c1`, the Potency was inconclusive [inhibitor, partial curve].
For `Cn1nc(-c2ccccc2)c(CO)c1Oc1cccc(C(F)(F)F)c1`, the Potency was inconclusive [inhibitor, single point].
For `Cc1ccc(Nc2cc(C)nc(-c3ccccc3O)n2)cc1`, the Potency was inconclusive [inhibitor, partial curve, poor fit].
With `CCNc1ncc2nc(CCc3ccccc3)c(=O)n(CCC#N)c2n1` the Potency was inconclusive [inhibitor, single point].
For `COc1ccc(/C=N/NC(=O)C(O)(c2ccccc2)c2ccccc2)cc1OC`, the “activity change, negative = growth inhibition” value was inactive: -7.46%.
With `COc1cc(CN2CCc3c([nH]c4ccccc34)C2)cc(OC)c1` the Potency was inconclusive [inhibitor, single point].
With `Cc1ccc(NC(=O)c2cc(-c3ccco3)on2)cc1C` the Potency was inconclusive [inhibitor, partial curve].
With `CC(OC(=O)c1ccco1)C(=O)Nc1nc(-c2ccccc2)cs1` (stereo not drawn) the Potency was inconclusive [inhibitor, single point].
For `CCCN(Cc1cccs1)C(=O)Nc1ccc(Br)c(C)c1`, the Potency was inconclusive [inhibitor, single point].
With `CCOc1ccc(NC(=O)CN2CCN(CC(=O)Nc3ccc(OC)cc3OC)CC2)cc1` the Potency was inconclusive [inhibitor, single point].
For `CC1=C(C(=O)N2CCOCC2)CC(CC(=O)NCc2ccco2)C(=O)N1Cc1ccc(C(C)(C)C)cc1` (stereo not drawn), the Potency was active: 29.1 µM.
With `O=C(O)Cc1cn(Cc2ccc(F)cc2)c2ccccc12` the “activity change, negative = growth inhibition” value was inactive: 8.31%.
With `O=C(c1ccccc1Sc1ccc([N+](=O)[O-])cc1)N1CCCCC1` the Potency was inconclusive [inhibitor, single point].
For `CCOc1ccc(/C=C2\SC(N3CCc4ccccc4C3)=NC2=O)cc1`, the Potency was active: 29.1 µM.
For `COc1cc(C(=O)NCCC(=O)NCCN2CCCCCC2)cc(OC)c1OC`, the Potency was inconclusive [inhibitor, single point].
With `Cc1cccc(NS(=O)(=O)c2ccc(Cl)c(C(=O)Nc3ccccc3C)c2)c1` the Potency was inconclusive [inhibitor, single point].
In the case of `COc1ccc(S(=O)(=O)N2CCN(C(c3ccccc3)c3ccccc3)CC2)cc1NC(C)=O`, the Potency is reported as inconclusive [inhibitor, partial curve].
In the case of `C/C(=N\NC(=O)c1ccc(O)cc1)c1cccc(NC(=O)c2ccc(Cl)cc2)c1`, the Potency is reported as inconclusive [inhibitor, partial curve, poor fit].
For `CCCCOc1ccccc1NC(=O)Cn1c(-c2cncs2)nc2ccccc21`, the Potency was active: 23.1 µM.
In the case of `CCN(CC)c1cc2c(c3c1ccn3C)C1CCC2C1` (stereo not drawn), the Potency is reported as active: 25.9 µM.
For `O=C(NCc1ccccc1F)C1CCCN1C(=O)Nc1cccc(F)c1` (stereo not drawn), the “activity change, negative = growth inhibition” value was inactive: 3.21%.
With `COc1ccc(C(=O)Nc2nc3ccccc3s2)cc1OC` the “activity change, negative = growth inhibition” value was inactive: 2.49%.
For `Cc1cccc(Nc2nc(N)c([N+](=O)[O-])c(N3CCN(C)CC3)n2)c1`, the Potency was inconclusive [inhibitor, single point].
For `Nc1nc(CSc2nnnn2-c2ccccc2)nc(N2CCCc3ccccc32)n1`, the Potency was inconclusive [inhibitor, single point].
In the case of `Cc1oc(-c2ccccc2)nc1CNS(=O)(=O)c1ccc(Cl)cc1`, the Potency is reported as inconclusive [inhibitor, single point].
With `OCCNCCCOc1cccc(Cl)c1Cl` the Potency was active: 0.188 µM.
With `CC(=O)C1=C(C)OC(N)=C(C#N)C1c1cc2cccc(C)c2nc1Cl` (stereo not drawn) the “activity change, negative = growth inhibition” value was inactive: -5.9%.
In the case of `CC(=O)N1c2ccc(S(=O)(=O)N3CCC(C(=O)NCc4ccccc4Cl)CC3)cc2CC1C` (stereo not drawn), the “activity change, negative = growth inhibition” value is reported as inactive: -6.03%.
For `COc1ccc(Br)cc1S(=O)(=O)Nc1ncccc1C`, the Potency was inconclusive [inhibitor, single point].
In the case of `COc1ccc(OC)c(-n2cnc3cc(C(=O)NC4CCCC4)ccc32)c1`, the “activity change, negative = growth inhibition” value is reported as inactive: -8.05%.
For `CN1c2ccc(Cl)cc2C(=O)NC1C1CC=CCC1` (stereo not drawn), the “activity change, negative = growth inhibition” value was inactive: -3.71%.
With `CCCC(=O)NNC(=O)CCC(=O)Nc1ccccc1Cl` the “activity change, negative = growth inhibition” value was inactive: 11.8%.
On the % scale 0 is the no-effect control and ±100 the full control effect; potency means the concentration at half of the fitted maximal effect; tags describe the fitted curve by direction and shape.
